The whole screen tested about 390,000 compounds, of which about 910 (0.23%) were called active. Not shown: some 5% with an inconclusive outcome. Calls come from the whole dose curve; as a rule, active = well fitted inhibition curve with a large enough effect; inconclusive = small, poorly fitted or top-dose-only effect; inactive = no such curve, though single readings can be large or run the other way. The list shows a part of the results, in another mix than the full data.
target: Ubiquitin carboxyl-terminal hydrolase 1 (Homo sapiens) (UniProt O94782); assay: Inhibitors of USP1/UAF1: Primary Screen; conditions: recombinant USP1/UAF1, Ub-Rhodamine cleavage fluorescence; activity change, negative = inhibition: at 57.1 µM (top of the series); note: nearly all actives have a fitted effect of over 60% in size
Sequence of UniProt O94782 (O94782 whole entry, looked up): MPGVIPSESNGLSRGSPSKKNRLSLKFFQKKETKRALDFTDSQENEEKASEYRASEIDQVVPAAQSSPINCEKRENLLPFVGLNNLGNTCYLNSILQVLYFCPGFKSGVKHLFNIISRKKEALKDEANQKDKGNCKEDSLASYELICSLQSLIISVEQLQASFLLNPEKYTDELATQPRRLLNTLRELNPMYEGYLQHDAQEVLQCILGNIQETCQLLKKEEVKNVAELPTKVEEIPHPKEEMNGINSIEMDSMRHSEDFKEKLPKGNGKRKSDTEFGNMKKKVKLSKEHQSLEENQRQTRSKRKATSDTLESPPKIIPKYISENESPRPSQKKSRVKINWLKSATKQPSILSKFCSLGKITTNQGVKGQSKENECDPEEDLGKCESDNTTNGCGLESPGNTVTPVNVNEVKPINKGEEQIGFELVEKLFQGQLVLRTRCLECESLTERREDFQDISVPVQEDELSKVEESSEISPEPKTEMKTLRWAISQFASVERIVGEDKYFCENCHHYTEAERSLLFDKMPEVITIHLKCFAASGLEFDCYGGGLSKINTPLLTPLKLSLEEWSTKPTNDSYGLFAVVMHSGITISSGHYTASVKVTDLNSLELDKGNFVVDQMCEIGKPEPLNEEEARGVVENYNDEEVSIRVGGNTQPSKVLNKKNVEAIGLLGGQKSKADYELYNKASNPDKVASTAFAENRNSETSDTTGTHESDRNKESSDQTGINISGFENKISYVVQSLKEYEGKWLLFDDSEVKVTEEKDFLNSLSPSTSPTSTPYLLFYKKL
How it was run: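 1 nM enzyme complex + cpd, 15 min RT; start with Ub-Rho 150nM final; kinetic fluorescence ex 480/em 540, 6 reads q60 s. Buffer 50mM HEPES pH 7.8, 0.5mM EDTA, 0.1 mg/ml BSA, 1mM TCEP, 0.01% Tween-20.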
% is set by controls: 0 for no effect and ±100 for the full control effect; potency is the fitted concentration of half-maximal effect.

Activity change, negative = inhibition, inactive:
COC(=O)c1ccc(NC(=O)Cn2nc(C(=O)Nc3ccc(C)cc3)ccc2=O)cc1 -20.6%
CC(C)(C)c1ccc(C2NC(=O)c3n[nH]c(-c4cccs4)c32)cc1 (configuration not stated) 31.8%
C[C@@H]1CN([C@@H](C)CO)S(=O)(=O)c2ccc(Br)cc2O[C@@H]1CN(C)C(=O)c1ccccn1 -18.3%
N#C/C(=C(/O)COC(=O)Cc1c[nH]c2ccccc12)c1nc2ccccc2[nH]1 -7.62%
C=CC[C@H](CC(=O)NCCO)C(=O)N[C@H](C)COC(=O)[C@@H](CC=C)Cc1ccc(F)cc1 -31.8%
CCCCCC(=O)N1C[C@@H](O)[C@H](n2cc(-c3ccc(F)cc3)nn2)C[C@@H]1c1ccc(OC)cc1 -13.1%
CCOc1ccc(Cn2c3ccc(OC)cc3c3nc4ccccc4nc32)cc1OC 35.7%
C=CC[C@@H](CC(=O)N[C@@H](CO)Cc1ccccc1)C(=O)N[C@H](COC(=O)[C@H](CC=C)CC(=O)OC(C)(C)C)Cc1c[nH]c2ccccc12 -24.5%
C=CCC[C@@H](Cc1ccc(F)cc1)C(=O)OC[C@H]1CCCN1C(=O)[C@@H](CC=C)CC(=O)N[C@H](CO)Cc1ccccc1 -18%
C[C@]12C(=O)N(c3ccc(Br)cc3)C(=O)N1[C@H]1c3ccccc3OC[C@@H]1[C@H]2c1ccccc1 -19.8%
CCOC(=O)c1c(NC(=O)c2ccc(S(=O)(=O)N(C)C3CCCCC3)cc2)sc2c1CCN(C(C)C)C2 68.2%
COc1cc(/C=C2/SC(=S)N(CC(=O)Nc3cccnc3)C2=O)cc(OC)c1OC -23.3%
COc1ccc(NC(=O)c2sc3nc(-c4ccc(OC)cc4)cc(C(F)(F)F)c3c2N)cc1 -14.6%
Cc1c(C)n(C)c2ccc(C(=O)NCCCN3CCCCC3C)cc12 (configuration not stated) -4.9%
CC(C)(C)OC(=O)C[C@@H]1C/C=C\C[C@@H](CC(=O)N[C@H](CO)Cc2ccccc2)C(=O)NC[C@H](c2ccccc2)OC1=O -22.2%
CC(=O)C[C@H](O)CC(=O)[C@H]1OC(=O)CCCCCCc2ccccc21 -17.9%
C[C@@H]1CN([C@@H](C)CO)C(=O)CCCn2nncc2CO[C@H]1CN(C)C(=O)CCC(F)(F)F -17.6%

Potency, active:
O=C1c2cccc3c(O)ccc(c23)C(=O)N1Cc1ccccc1 6.31 µM
O=C1C=C(Nc2ccccc2)c2ccccc2C1=O 12.6 µM
CC(=O)OCCn1c2nc(=O)[nH]c(=O)c-2nc2cc(C)c(C)cc21 28.2 µM
COc1cc(N(C(C)=O)c2ccc(O)c(C(=O)O)c2)c2ncccc2c1 31.6 µM
O=C(NC1(O)C(=O)c2ccccc2C1=O)c1ccc(C(F)(F)F)cc1 15.8 µM

From PubChem BioAssay AID743255 (National Center for Advancing Translational Sciences (NCATS), 2014)
